Some of the results follow.
What follows are sequences tested against T1, MBP-FoxP1dN (Mus musculus, UniProt P58462 326-579) (assay: PD-seq (MBP pull-down with sequencing); 20 mM Tris-HCl pH 7.5, 100 mM NaCl, 1.5 mM MgCl2, 0.4 uM protein, 0.1 uM dsDNA library, 30 min, room temperature, amylose pull-down; high values mean tight binding). Conditions: protein: recombinant; tags: His6-MBP; chain copies: 2; dsDNA, one strand shown.
T1 sequence: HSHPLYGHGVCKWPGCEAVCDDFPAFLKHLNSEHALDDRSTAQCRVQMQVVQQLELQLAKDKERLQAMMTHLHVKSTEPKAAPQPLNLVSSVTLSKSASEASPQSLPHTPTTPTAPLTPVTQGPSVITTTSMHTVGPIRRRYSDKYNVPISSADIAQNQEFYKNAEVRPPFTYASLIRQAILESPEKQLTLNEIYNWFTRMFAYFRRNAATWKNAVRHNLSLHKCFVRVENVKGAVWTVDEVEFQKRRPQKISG
In short: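 E. coli-expressed mouse FoxP3 or FoxP1 fragment, N-terminus removed and tagged with His6-MBP, was used at 0.4 µM against 0.1 µM of a Klenow-filled degenerate double-stranded DNA library. After 30 min at room temperature in Tris pH 7.5 buffer with NaCl and MgCl2, complexes were pulled down on amylose resin and washed three times. Binding is pull-down over input reads-per-million enrichment from pooled replicates of the proteinase K-released, PCR-barcoded, Illumina-sequenced DNA.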

Row | Sequence | binding signal
1 | GATGATTGTTCTCCCAGCTGATGAATTTACTGTTTCGAGTAAACAAATTTTCCTAATCTTTCTGTTCAAGCGCCATCTAC | 1.35 RPM ratio (pull-down/input)
2 | GATGATTGTTCTCCCAGCTGATGAATTACGACATTCGAGTAAACAAATTTTCCTAATCTTTCTGTTCAAGCGCCATCTAC | 1.11 RPM ratio (pull-down/input)
3 | GATGATTGTTCTCCCAGCTGATGAATTCAGCTAATCGAGTAAACAAATTTTCCTAATCTTTCTGTTCAAGCGCCATCTAC | 0.917 RPM ratio (pull-down/input)
4 | GATGATTGTTCTCCCAGCTGATGAATTGGTTAACTCGAGTAAACAAATTTTCCTAATCTTTCTGTTCAAGCGCCATCTAC | 1.01 RPM ratio (pull-down/input)
5 | GATGATTGTTCTCCCAGCTGATGAATTTGGCGGTTCGAGTAAACAAATTTTCCTAATCTTTCTGTTCAAGCGCCATCTAC | 0.802 RPM ratio (pull-down/input)
6 | GATGATTGTTCTCCCAGCTGATGAATTCGACGCGTCGAGTAAACAAATTTTCCTAATCTTTCTGTTCAAGCGCCATCTAC | 0.902 RPM ratio (pull-down/input)
7 | GATGATTGTTCTCCCAGCTGATGAATTATGAATGTCGAGTAAACAAATTTTCCTAATCTTTCTGTTCAAGCGCCATCTAC | 0.997 RPM ratio (pull-down/input)
8 | GATGATTGTTCTCCCAGCTGATGAATTTGTTCCTTCGAGTAAACAAATTTTCCTAATCTTTCTGTTCAAGCGCCATCTAC | 1.11 RPM ratio (pull-down/input)
9 | GATGATTGTTCTCCCAGCTGATGAATTGAGGTGTTCGAGTAAACAAATTTTCCTAATCTTTCTGTTCAAGCGCCATCTAC | 0.943 RPM ratio (pull-down/input)
10 | GATGATTGTTCTCCCAGCTGATGAATTGCACTCGTCGAGTAAACAAATTTTCCTAATCTTTCTGTTCAAGCGCCATCTAC | 1.09 RPM ratio (pull-down/input)
11 | GATGATTGTTCTCCCAGCTGATGAATTAAAGCCATCGAGTAAACAAATTTTCCTAATCTTTCTGTTCAAGCGCCATCTAC | 1.04 RPM ratio (pull-down/input)
12 | GATGATTGTTCTCCCAGCTGATGAATTATATTCTTCGAGTAAACAAATTTTCCTAATCTTTCTGTTCAAGCGCCATCTAC | 0.925 RPM ratio (pull-down/input)
13 | GATGATTGTTCTCCCAGCTGATGAATTTAAGGTCTCGAGTAAACAAATTTTCCTAATCTTTCTGTTCAAGCGCCATCTAC | 0.831 RPM ratio (pull-down/input)
14 | GATGATTGTTCTCCCAGCTGATGAATTTCGTCAGTCGAGTAAACAAATTTTCCTAATCTTTCTGTTCAAGCGCCATCTAC | 0.896 RPM ratio (pull-down/input)
15 | GATGATTGTTCTCCCAGCTGATGAATTGATTGGGTCGAGTAAACAAATTTTCCTAATCTTTCTGTTCAAGCGCCATCTAC | 0.965 RPM ratio (pull-down/input)
16 | GATGATTGTTCTCCCAGCTGATGAATTCCAGGAGTCGAGTAAACAAATTTTCCTAATCTTTCTGTTCAAGCGCCATCTAC | 0.717 RPM ratio (pull-down/input)
17 | GATGATTGTTCTCCCAGCTGATGAATTTTCAAACTCGAGTAAACAAATTTTCCTAATCTTTCTGTTCAAGCGCCATCTAC | 0.965 RPM ratio (pull-down/input)
18 | GATGATTGTTCTCCCAGCTGATGAATTGAAGACATCGAGTAAACAAATTTTCCTAATCTTTCTGTTCAAGCGCCATCTAC | 0.967 RPM ratio (pull-down/input)
19 | GATGATTGTTCTCCCAGCTGATGAATTTTCGGGGTCGAGTAAACAAATTTTCCTAATCTTTCTGTTCAAGCGCCATCTAC | 0.76 RPM ratio (pull-down/input)
20 | GATGATTGTTCTCCCAGCTGATGAATTGGACCGTTCGAGTAAACAAATTTTCCTAATCTTTCTGTTCAAGCGCCATCTAC | 0.846 RPM ratio (pull-down/input)

Row | Sequence | binding signal
21 | GATGATTGTTCTCCCAGCTGATGAATTGGTAGGATCGAGTAAACAAATTTTCCTAATCTTTCTGTTCAAGCGCCATCTAC | 0.922 RPM ratio (pull-down/input)
22 | GATGATTGTTCTCCCAGCTGATGAATTGATGATCTCGAGTAAACAAATTTTCCTAATCTTTCTGTTCAAGCGCCATCTAC | 0.99 RPM ratio (pull-down/input)
23 | GATGATTGTTCTCCCAGCTGATGAATTGGCTTTTTCGAGTAAACAAATTTTCCTAATCTTTCTGTTCAAGCGCCATCTAC | 0.947 RPM ratio (pull-down/input)
24 | GATGATTGTTCTCCCAGCTGATGAATTACGTATATCGAGTAAACAAATTTTCCTAATCTTTCTGTTCAAGCGCCATCTAC | 1.22 RPM ratio (pull-down/input)
25 | GATGATTGTTCTCCCAGCTGATGAATTCTAGGCGTCGAGTAAACAAATTTTCCTAATCTTTCTGTTCAAGCGCCATCTAC | 0.889 RPM ratio (pull-down/input)
26 | GATGATTGTTCTCCCAGCTGATGAATTAACATGCTCGAGTAAACAAATTTTCCTAATCTTTCTGTTCAAGCGCCATCTAC | 1.07 RPM ratio (pull-down/input)
27 | GATGATTGTTCTCCCAGCTGATGAATTATGGGCGTCGAGTAAACAAATTTTCCTAATCTTTCTGTTCAAGCGCCATCTAC | 0.937 RPM ratio (pull-down/input)
28 | GATGATTGTTCTCCCAGCTGATGAATTAGCTCAGTCGAGTAAACAAATTTTCCTAATCTTTCTGTTCAAGCGCCATCTAC | 0.833 RPM ratio (pull-down/input)
29 | GATGATTGTTCTCCCAGCTGATGAATTTAAACATTCGAGTAAACAAATTTTCCTAATCTTTCTGTTCAAGCGCCATCTAC | 1.12 RPM ratio (pull-down/input)
30 | GATGATTGTTCTCCCAGCTGATGAATTGCCTGTGTCGAGTAAACAAATTTTCCTAATCTTTCTGTTCAAGCGCCATCTAC | 0.968 RPM ratio (pull-down/input)
31 | GATGATTGTTCTCCCAGCTGATGAATTCTAAACCTCGAGTAAACAAATTTTCCTAATCTTTCTGTTCAAGCGCCATCTAC | 0.907 RPM ratio (pull-down/input)
32 | GATGATTGTTCTCCCAGCTGATGAATTATAGTACTCGAGTAAACAAATTTTCCTAATCTTTCTGTTCAAGCGCCATCTAC | 1.05 RPM ratio (pull-down/input)
33 | GATGATTGTTCTCCCAGCTGATGAATTGCTATCTTCGAGTAAACAAATTTTCCTAATCTTTCTGTTCAAGCGCCATCTAC | 1.1 RPM ratio (pull-down/input)
34 | GATGATTGTTCTCCCAGCTGATGAATTAGTGCCGTCGAGTAAACAAATTTTCCTAATCTTTCTGTTCAAGCGCCATCTAC | 0.903 RPM ratio (pull-down/input)
35 | GATGATTGTTCTCCCAGCTGATGAATTGTTTGCTTCGAGTAAACAAATTTTCCTAATCTTTCTGTTCAAGCGCCATCTAC | 2.2 RPM ratio (pull-down/input)
36 | GATGATTGTTCTCCCAGCTGATGAATTGCTTAAATCGAGTAAACAAATTTTCCTAATCTTTCTGTTCAAGCGCCATCTAC | 1.19 RPM ratio (pull-down/input)
37 | GATGATTGTTCTCCCAGCTGATGAATTACCTAACTCGAGTAAACAAATTTTCCTAATCTTTCTGTTCAAGCGCCATCTAC | 1.03 RPM ratio (pull-down/input)
38 | GATGATTGTTCTCCCAGCTGATGAATTCGCGGGCTCGAGTAAACAAATTTTCCTAATCTTTCTGTTCAAGCGCCATCTAC | 0.778 RPM ratio (pull-down/input)
39 | GATGATTGTTCTCCCAGCTGATGAATTCCTCTCATCGAGTAAACAAATTTTCCTAATCTTTCTGTTCAAGCGCCATCTAC | 0.861 RPM ratio (pull-down/input)
40 | GATGATTGTTCTCCCAGCTGATGAATTTGTAATTTCGAGTAAACAAATTTTCCTAATCTTTCTGTTCAAGCGCCATCTAC | 1.31 RPM ratio (pull-down/input)

Reference: article PMC12820563, “FoxP3 forms a head-to-head dimer in vivo and stabilizes its multimerization on adjacent microsatellites”
